# Experimental data as given in the supplement of paper PMC8728848.
# This is one part of the list.
# B1: SefD (Salmonella enterica), Q9L6K6 (protein)
# chain: GAYIIRGQNNSAHKLRIRIGGEDWQPDNSGIGMVSHSDFTNEFNIYYFGNGDIPVDTYLISIYATEIEL
# Assays:
# Experiment in all cases: glycan array binding signal (z-score within array); higher = stronger binding
# Settings in all cases: glycan notation: IUPAC condensed, linker removed
# [1] = molecular target: Gal(b1-3)[Fuc(a1-4)]GlcNAc(b1-3)Gal(b1-4)GlcNAc
# How it was run: (§1)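 Negative Z-scores can be read as non-binding. The Z-score is calculated within each array and then averaged across arrays of one protein sequence at different concentrations or buffers and across linkers. Arrays, 3228 in all, were curated from the Consortium for Functional Glycomics database and kept only where the protein sequence was available.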
# [2] = molecular target: Gal(b1-3)[Fuc(a1-4)]GlcNAc(b1-3)Gal(b1-4)[Fuc(a1-3)]GlcNAc
# How it was run: as §1
# [3] = molecular target: Gal(b1-3)[GlcNAc(b1-6)]GalNAc
# How it was run: as §1
# [4] = molecular target: Gal(b1-3)[Neu5Ac(a2-6)]GalNAc
# How it was run: as §1
# [5] = molecular target: Gal(b1-3)[Neu5Ac(a2-6)]GlcNAc(b1-6)Gal(b1-4)Glc
# How it was run: as §1
# [6] = molecular target: Gal(b1-3)[Neu5Ac(b2-6)]GalNAc
# How it was run: as §1
# [7] = molecular target: Gal(b1-4)Gal
# How it was run: as §1
# [8] = molecular target: Gal(b1-4)GalNAc(a1-3)[Fuc(a1-2)]Gal(b1-4)GlcNAc
# How it was run: as §1
# [9] = molecular target: Gal(b1-4)GalNAc(b1-3)[Fuc(a1-2)]Gal(b1-4)GlcNAc
# How it was run: as §1
# [10] = molecular target: Gal(b1-4)Glc
# How it was run: as §1
# [11] = molecular target: Gal(b1-4)Glc6S
# How it was run: as §1
# [12] = molecular target: Gal(b1-4)GlcNAc
# How it was run: as §1
# [13] = molecular target: Gal(b1-4)GlcNAc(a1-6)Gal(b1-4)GlcNAc
# How it was run: as §1
# [14] = molecular target: Gal(b1-4)GlcNAc(b1-2)Man
# How it was run: as §1
# [15] = molecular target: Gal(b1-4)GlcNAc(b1-2)Man(a1-3)Man(b1-4)GlcNAc(b1-4)GlcNAc
# How it was run: as §1
# [16] = molecular target: Gal(b1-4)GlcNAc(b1-2)Man(a1-3)[Gal(b1-4)GlcNAc(b1-2)Man(a1-6)]Man(b1-4)GlcNAc(b1-4)GlcNAc
# How it was run: as §1
# [17] = molecular target: Gal(b1-4)GlcNAc(b1-2)Man(a1-3)[Gal(b1-4)GlcNAc(b1-2)Man(a1-6)]Man(b1-4)GlcNAc(b1-4)[Fuc(a1-6)]GlcNAc
# How it was run: as §1
# [18] = molecular target: Gal(b1-4)GlcNAc(b1-2)Man(a1-3)[Gal(b1-4)GlcNAc(b1-2)][GlcNAc(b1-4)]Man(b1-4)GlcNAc(b1-4)GlcNAc
# How it was run: as §1
# [19] = molecular target: Gal(b1-4)GlcNAc(b1-2)Man(a1-3)[GlcNAc(b1-2)Man(a1-6)]Man(b1-4)GlcNAc(b1-4)GlcNAc
# How it was run: as §1
# [20] = molecular target: Gal(b1-4)GlcNAc(b1-2)Man(a1-3)[Man(a1-6)]Man(b1-4)GlcNAc(b1-4)GlcNAc
# How it was run: as §1
# [21] = molecular target: Gal(b1-4)GlcNAc(b1-2)Man(a1-6)Man(b1-4)GlcNAc(b1-4)GlcNAc
# How it was run: as §1
# [22] = molecular target: Gal(b1-4)GlcNAc(b1-2)Man(a1-6)[GlcNAc(b1-2)Man(a1-3)]Man(b1-4)GlcNAc(b1-4)GlcNAc
# How it was run: as §1
# [23] = molecular target: Gal(b1-4)GlcNAc(b1-2)Man(a1-6)[Man(a1-3)]Man(b1-4)GlcNAc(b1-4)GlcNAc
# How it was run: as §1
# [24] = molecular target: Gal(b1-4)GlcNAc(b1-2)[Gal(b1-4)GlcNAc(b1-4)]Man(a1-3)[Gal(b1-4)GlcNAc(b1-2)Man(a1-6)]Man(b1-4)GlcNAc(b1-4)GlcNAc
# How it was run: as §1
# [25] = molecular target: Gal(b1-4)GlcNAc(b1-2)[Gal(b1-4)GlcNAc(b1-4)]Man(a1-3)[Gal(b1-4)GlcNAc(b1-2)[Gal(b1-4)GlcNAc(b1-6)]Man(a1-6)]Man(b1-4)GlcNAc(b1-4)GlcNAc
# How it was run: as §1
# [26] = molecular target: Gal(b1-4)GlcNAc(b1-2)[Gal(b1-4)GlcNAc(b1-4)]Man(a1-3)[GlcNAc(b1-4)][Gal(b1-4)GlcNAc(b1-2)Man(a1-6)]Man(b1-4)GlcNAc(b1-4)GlcNAc
# How it was run: as §1
# [27] = molecular target: Gal(b1-4)GlcNAc(b1-2)[Gal(b1-4)GlcNAc(b1-4)]Man(a1-3)[GlcNAc(b1-4)][Gal(b1-4)GlcNAc(b1-2)[Gal(b1-4)GlcNAc(b1-6)]Man(a1-6)]Man(b1-4)GlcNAc(b1-4)GlcNAc
# How it was run: as §1
# [28] = molecular target: Gal(b1-4)GlcNAc(b1-2)[Gal(b1-4)GlcNAc(b1-6)]Man(a1-6)[Gal(b1-4)GlcNAc(b1-2)Man(a1-3)]Man(b1-4)GlcNAc(b1-4)GlcNAc
# How it was run: as §1
# [29] = molecular target: Gal(b1-4)GlcNAc(b1-2)[Gal(b1-4)GlcNAc(b1-6)]Man(a1-6)[GlcNAc(b1-4)][Gal(b1-4)GlcNAc(b1-2)Man(a1-3)]Man(b1-4)GlcNAc(b1-4)GlcNAc
# How it was run: as §1
# [30] = molecular target: Gal(b1-4)GlcNAc(b1-3)Gal(b1-3)GlcNAc
# How it was run: as §1
# [31] = molecular target: Gal(b1-4)GlcNAc(b1-3)Gal(b1-4)Glc
# How it was run: as §1
# [32] = molecular target: Gal(b1-4)GlcNAc(b1-3)Gal(b1-4)GlcNAc
# How it was run: as §1
# [33] = molecular target: Gal(b1-4)GlcNAc(b1-3)Gal(b1-4)GlcNAc(b1-3)Gal(b1-4)GlcNAc
# How it was run: as §1
# [34] = molecular target: Gal(b1-4)GlcNAc(b1-3)Gal(b1-4)[Fuc(a1-3)GlcNAc(b1-6)]Gal(b1-4)Glc
# How it was run: as §1
# [35] = molecular target: Gal(b1-4)GlcNAc(b1-3)Gal(b1-4)[Fuc(a1-3)]GlcNAc(b1-3)Gal(b1-4)[Fuc(a1-3)]GlcNAc
# How it was run: as §1
# [36] = molecular target: Gal(b1-4)GlcNAc(b1-3)GalNAc
# How it was run: as §1
# [37] = molecular target: Gal(b1-4)GlcNAc(b1-3)[Gal(b1-4)GlcNAc(b1-6)]Gal(b1-4)GlcNAc
# How it was run: as §1
# [38] = molecular target: Gal(b1-4)GlcNAc(b1-3)[Gal(b1-4)GlcNAc(b1-6)]GalNAc
# How it was run: as §1
# [39] = molecular target: Gal(b1-4)GlcNAc(b1-3)[GlcNAc(b1-6)]Gal(b1-4)GlcNAc
# How it was run: as §1
# [40] = molecular target: Gal(b1-4)GlcNAc(b1-6)Gal(b1-4)GlcNAc
# How it was run: as §1
# [41] = molecular target: Gal(b1-4)GlcNAc(b1-6)GalNAc
# How it was run: as §1
# [42] = molecular target: Gal(b1-4)GlcNAc(b1-6)[Gal(b1-3)]GalNAc
# How it was run: as §1
# [43] = molecular target: Gal(b1-6)Gal
# How it was run: as §1
# [44] = molecular target: Gal3S(b1-3)GalNAc
# How it was run: as §1
# [45] = molecular target: Gal3S(b1-3)GlcNAc
# How it was run: as §1
binder,measurement,setting,value
B1,glycan array binding signal (z-score),[1],-0.466
same,glycan array binding signal (z-score),[2],-0.408
same,glycan array binding signal (z-score),[3],-0.291
same,glycan array binding signal (z-score),[4],-0.336
same,glycan array binding signal (z-score),[5],-0.532
same,glycan array binding signal (z-score),[6],0.319
same,glycan array binding signal (z-score),[7],0.157
same,glycan array binding signal (z-score),[8],-0.1
same,glycan array binding signal (z-score),[9],-0.425
same,glycan array binding signal (z-score),[10],-0.272
same,glycan array binding signal (z-score),[11],-0.395
same,glycan array binding signal (z-score),[12],0.971
same,glycan array binding signal (z-score),[13],-0.274
same,glycan array binding signal (z-score),[14],-0.245
same,glycan array binding signal (z-score),[15],-0.377
same,glycan array binding signal (z-score),[16],-0.456
same,glycan array binding signal (z-score),[17],-0.254
same,glycan array binding signal (z-score),[18],0.247
same,glycan array binding signal (z-score),[19],-0.3
same,glycan array binding signal (z-score),[20],-0.377
same,glycan array binding signal (z-score),[21],-0.044
same,glycan array binding signal (z-score),[22],-0.388
same,glycan array binding signal (z-score),[23],0.938
same,glycan array binding signal (z-score),[24],-0.337
same,glycan array binding signal (z-score),[25],0.553
same,glycan array binding signal (z-score),[26],-0.137
same,glycan array binding signal (z-score),[27],-0.481
same,glycan array binding signal (z-score),[28],0.127
same,glycan array binding signal (z-score),[29],-0.282
same,glycan array binding signal (z-score),[30],-0.372
same,glycan array binding signal (z-score),[31],-0.19
same,glycan array binding signal (z-score),[32],0.274
same,glycan array binding signal (z-score),[33],-0.505
same,glycan array binding signal (z-score),[34],-0.433
same,glycan array binding signal (z-score),[35],0.134
same,glycan array binding signal (z-score),[36],-0.392
same,glycan array binding signal (z-score),[37],-0.614
same,glycan array binding signal (z-score),[38],-0.441
same,glycan array binding signal (z-score),[39],-0.538
same,glycan array binding signal (z-score),[40],-0.161
same,glycan array binding signal (z-score),[41],-0.074
same,glycan array binding signal (z-score),[42],-0.044
same,glycan array binding signal (z-score),[43],-0.363
same,glycan array binding signal (z-score),[44],-0.236
same,glycan array binding signal (z-score),[45],-0.133
